The values below come from publication PMC5827659, “A dual mechanism promotes switching of the Stormorken STIM1 R304W mutant into the activated state” (Nature Communications, 2018).

Usually Kd stands for the constant that tells how readily two partners part at equilibrium. Broadly, the stoichiometry N is the number of molecules, sites or subunits per partner or assembly.

Series [1] concerns the molecule itself. Nature of the series: AUC; analytical ultracentrifugation of purified OASFext proteins at ~0.5 mg ml^−1 in solution; dimer to monomers.
Series [2] deals with the molecule itself. The series can be described thus: AUC; analytical ultracentrifugation of purified OASFext proteins; estimated self-association of the dimer units (dimer-to-tetramer association; tetramer to dimers).

B1: OASFext R304W (STIM1 […] R304W) (domain or fragment)
chain: not shown
notes: human STIM1 […] (extended OASF fragment) with the patient mutation R304W; Primarily dimeric at ~0.5 mg/ml by AUC; also called R304W OASFext; R304W protein; source: Supplementary Methods
For the protein B1, in series [1], the dissociation constant (Kd) is less than 1 µM and the “stoichiometry N” value amounted to 2.

B2: OASFext (extended OASF fragment, STIM1 […]) wild type (domain or fragment)
chain: not shown
notes: human STIM1 […] (extended OASF fragment); Primarily dimeric at ~0.5 mg/ml by AUC; also called wt OASFext; OASFext wt; source: Supplementary Methods
For B2, in series [1], the Kd was less than 1 µM and the “stoichiometry N” value was found to be 2.

B3: OASFext L251S (STIM1 […] L251S) (domain or fragment)
chain: not shown
notes: human STIM1 […] (extended OASF fragment), L251S; Primarily dimeric at ~0.5 mg/ml by AUC; also called L251S OASFext; L251S protein; source: Supplementary Methods
Turning to B3, the Kd in series [2] was less than 1000 µM; in series [1], less than 1 µM. Moreover, the “stoichiometry N” value in series [1] was 2.
